Test results: ChEMBL document CHEMBL1156829
Where “and” joins values, the source holds several entries; their conditions need not be identical. Equal entries are not always repeated. Over roughly 5,400 compounds, “IFI” has its median near 2; the highest 2% begin near 22. The list shows a part of the results.

Experiment: NOVARTIS: Inhibition Frequency Index (IFI) - the number of HTS assays where a compound showed > 50% inhibition/induction, expressed as a percentage of the number of assays in which the compound was tested.
Type: functional
For `CC(=O)N(C1=C(N2CCCCC2)C(=O)c2ccccc2C1=O)c1cccc(F)c1`, the IFI was 0%. In the case of `CC(C)(C[N+](C)(C)C)C1OC2CCCCC2C2C=CCCC21` (stereo unspecified), the IFI is reported as 6.9%. Work on `COC(=O)c1[nH]c2ccc(Cl)cc2c1NC(=O)C(C)N1CCN(C2CCCCC2)CC1` (stereo unspecified) yielded an IFI of 10.2%. In the case of `COc1cc(NC(=O)/C=C/c2ccccc2Cl)cc(OC)c1OC`, the IFI is reported as 1.56%. Compound `CCCCCCCCCCCC(=O)Oc1ccccc1-c1nc2ccccn2c1NC(C)(C)CC(C)(C)C` has an IFI of 2.83%. `COC(=O)C1CCCCN1S(=O)(=O)c1ccc(C)cc1` (stereo unspecified) gave an IFI of 0%. `N=c1n(CCN2CCCCC2)c2ccccc2n1CC(O)COc1ccc(Cl)cc1` (stereo unspecified) showed an IFI of 9.43%. `CCCCN(CC)CCNC(=O)c1cc2c(-c3ccc(Cl)cc3)nn(C)c2s1` showed an IFI of 0%. With `Clc1ccc2c(c1)nc(N1CCNCC1)n2Cc1ccccc1` the IFI was 0.8%. For `CCN1CCN(c2cc(C)c3cc(NC(=O)c4ccc(OC)c([N+](=O)[O-])c4)ccc3n2)CC1`, the IFI was 11.5%. In the case of `COc1ccc(Nc2nc(Nc3ccc(OC)cc3)c3[nH]ccc3n2)cc1`, the IFI is reported as 0%. For `CCNC(=O)C1CCN(c2cccc3c2C(=O)N(C2CCCCCCC2)C3=O)CC1`, the IFI was 3.45%. `CC(=O)Nc1cccc(-c2cncc(-c3ccc(C(=O)O)cc3)n2)c1` showed an IFI of 0%. `Cc1cc(Nc2ccc(C)c(C)c2)n2cnnc2n1` showed an IFI of 0%. With `CCCCCCCC[n+]1c(C)n(C)c2cc(Cl)c(Cl)cc21` the IFI was 0%. For `CC(=O)c1ccc(-n2cc(C(=O)C(C)Oc3ccc(Cl)cc3Cl)nn2)cc1` (stereo unspecified), the IFI was 1.3%. `CCC(c1nc2ccccc2c(=O)n1CC)N1CCN(C(=O)Nc2ccccc2C(F)(F)F)CC1` (stereo unspecified) showed an IFI of 2.08%. `CCOC(=O)C1=C(C)NC2=C(C(=O)C(C(=O)OCC)C(c3ccc(OC)cc3)C2)C1c1ccc(OC)c(OC)c1` (stereo unspecified) showed an IFI of 4.65%. In the case of `CCc1c(C#N)c(N)nc(SCC(=O)c2ccc(C)cc2)c1C#N`, the IFI is reported as 3.49%. With `Cc1ccc(S(=O)(=O)N2CCN(C(=O)c3ccccc3)C2c2ccccc2)cc1` (stereo unspecified) the IFI was 0%. In the case of `Cc1cccc(-n2nc(C(C)(C)C)cc2NC(=O)CN(C(=O)/C=C/c2ccccc2)C(C)C)c1C`, the IFI is reported as 0.926%. Compound `CCCOC(=O)C1=C(C)NC2=C(C(=O)CC(c3ccc(OC)c(OC)c3)C2)C1c1ccccc1Cl` (stereo unspecified) has an IFI of 2.35%. Work on `CC(c1nc2ccc(Cl)cc2c(=O)n1C)N1CCN(C(=O)C(C)(C)C)CC1` (stereo unspecified) yielded an IFI of 0%. Work on `O=C(CCl)Nc1ccc(OC(F)F)cc1` yielded an IFI of 0%. Work on `NCCCNC(=O)COC(c1ccccc1)c1cccnc1Cl` (stereo unspecified) yielded an IFI of 1.94%. `CCCCN(C)C(=O)CSc1nc(NCc2ccccc2)c2ccccc2n1` gave an IFI of 0%. Compound `CCN1CCN(Cc2c(O)ccc3c(=O)c(Oc4ccccc4Br)c(C(F)(F)F)oc23)CC1` has an IFI of 1.16%. With `COCCN(CC(=O)NCc1ccc(OC2CCN(CC(c3ccccc3)c3ccccc3)CC2)cc1)S(=O)(=O)c1ccccc1` the IFI was 1.41%. Work on `COc1ccccc1C(=O)NC1CCN(CC(O)CN(Cc2ccccc2)S(=O)(=O)c2ccccc2)C1` (stereo unspecified) yielded an IFI of 1.94%. Compound `COc1ccc(NC(=O)Cn2c(C)c(C=O)c3ccccc32)cc1` has an IFI of 7.69%. Compound `CC(C)(C)CC(C)(C)Nc1c(-c2ccccc2OC(=O)/C=C/c2ccccc2)nc2ccccn12` has an IFI of 8.33%. With `O=C1c2cccc3c(C4=NN(c5ccccc5)C(c5ccc(Cl)cc5)C4)ccc(c23)C(=O)N1c1ccccc1` (stereo unspecified) the IFI was 0%. Compound `CCN(CC)CCNc1nc(/C=C/c2ccc(Cl)cc2)nc2cc3ccccc3cc12` has an IFI of 8.77%. In the case of `Cc1noc(C)c1C(=O)N1CCC(O)(c2ccccn2)CC1`, the IFI is reported as 0%. Work on `Cc1c2ccccc2c(-c2ccccc2)c2ccccc12` yielded an IFI of 3.01%. `C=CC[N+]1(CC#Cc2cccc3ccccc23)CCCCC1` showed an IFI of 0%. Compound `CN(C)CCCNC1=NC=NC2C=C(Cl)C=CC12` (stereo unspecified) has an IFI of 1.24%. For `CCN(CC)CCN(Cc1cc2c(C)cc(C)cc2[nH]c1=O)C(=S)NCCCN(C)C`, the IFI was 2.08%. Work on `COc1ccc(/C=C2\SC(=S)N(CC(=O)NNC(=O)c3ccncc3)C2=O)cc1` yielded an IFI of 1.16%. `Cc1cc2c(cc1C)-c1c(ssc1=Nc1cccc(C)c1C)C(C)(C)N2` gave an IFI of 0%. `C=CCOC(=O)C1=C(C)N2CCSC2=C(C#N)C1c1ccco1` (stereo unspecified) showed an IFI of 1.06%. `CCCOC(=O)c1c(NC(=O)c2c(I)cnn2C)sc2c1CCCCC2` gave an IFI of 0%. For `CN(C)CC(C)(C)CNCc1cc(-c2ccnc3cc(Cl)ccc23)ccc1O`, the IFI was 4.42%. For `Cc1ccccc1-c1cccc(CN2CCCCC2CCn2cc(C(=O)NC3CC3)nn2)c1` (stereo unspecified), the IFI was 1.94%. `CCCCN(CC)CCNC(=O)C1c2ccccc2C(=O)N(Cc2ccc(F)cc2)C1c1ccc(OC)cc1` (stereo unspecified) showed an IFI of 0%. In the case of `OCCN(CCO)CC(O)Cn1c2ccc(Br)cc2c2cc(Br)ccc21` (stereo unspecified), the IFI is reported as 2.08%. With `Cc1ccc(OCCCCCCNCCO)c(C)c1` the IFI was 0%. With GNF-Pf-2945, CHEMBL581676 the IFI was 1.82%. For `CCOC(=O)C1=C(C)N=c2sc(=Cc3cc(Cl)ccc3O)c(=O)n2C1c1ccc(OC)c(OC)c1` (stereo unspecified), the IFI was 3.53% and 3.57%. With `COc1ccc(CCNc2ncnc3c2[nH]c2ccccc23)cc1` the IFI was 13.7%. For `CCC(c1nc2ccccc2c(=O)n1-c1ccccc1OC)N(CCc1ccccc1)C(=O)CCc1ccccc1` (stereo unspecified), the IFI was 2.25%. Work on `CCc1nc2nc(C)cc(Nc3ccc(I)cc3)n2n1` yielded an IFI of 0%. With `CC1=[N+](CC(=O)c2ccc(C)cc2)CCn2c(C)ccc21` the IFI was 0%. With `CN(C)c1ccc(N/C=C/C(=O)C(C)(C)C)cc1` the IFI was 4.54%. Work on `Cc1ccc(-n2c(-c3ccccc3)cc(C=NNC(=O)c3cccc(-n4c(C)ccc4C)c3)c2-c2ccccc2)cc1` yielded an IFI of 0%. Work on `CCC(=O)c1c(C)n(-c2ccc(Br)cc2)c2ccc(O)cc12` yielded an IFI of 0%. Compound `Cc1ccccc1Cn1c(=N)n(CC(O)c2ccc(Cl)c(Cl)c2)c2ccccc21` (stereo unspecified) has an IFI of 3.23%. `O=C(Cn1c(=O)oc2cc(S(=O)(=O)NCc3ccccc3)ccc21)NC1CCCCC1` showed an IFI of 0%. Compound `N=c1c2c(n(Cc3ccccc3Cl)c3c1CCC3)CCCC2` has an IFI of 6.25%. In the case of `COc1ccc(C2CC(=O)C3=C(C2)NC(C)=C(C(=O)OC2CCCC2)C3c2ccccc2)cc1` (stereo unspecified), the IFI is reported as 5.81%. Work on `O=C1C2C(C(=O)N1c1ccc(F)cc1)C1(c3ccccc3)C(=O)C2(c2ccccc2)C(c2ccccc2)=C1c1ccccc1` (stereo unspecified) yielded an IFI of 0%. Compound `CCCCCC[n+]1ccccc1C=Cc1ccc(N(C)C)cc1` has an IFI of 27.6%. `O=C(Nc1ccc2c(c1)CN(C1CCSCC1)CC2)C1(c2ccccc2)CC1` showed an IFI of 0%. With `O=C(c1ccc2nc(N3CCCCC3)sc2c1)N1CCN(Cc2ccc3c(c2)OCO3)CC1` the IFI was 2.86%. `O=C1c2ccccc2C(=O)c2c1ccc1nonc21` gave an IFI of 30.8%. `O=C(O)CSc1ccc(C(=O)NC2CCCCNC2=O)cn1` (stereo unspecified) showed an IFI of 1.39%. `COc1ccc(C2CC(=O)C3=C(C2)NC(C)=C(C(=O)OC2CCCC2)C3c2ccccc2C)cc1OC` (stereo unspecified) showed an IFI of 4.76%. Work on `CN(C)CCNC(=O)c1cc2c(-c3ccc(Cl)cc3)nn(C)c2s1` yielded an IFI of 7.69%. Compound `CC(C)CC(=O)Nc1nnc(-c2ccc(Br)cc2)s1` has an IFI of 0%. Work on `CC(C)CNC(=O)c1cnc(NCCCn2ccnc2)nc1Nc1ccccc1` yielded an IFI of 1.92%. Work on `CCCC(C)C(C(=O)NCc1ccccc1)N1C(=O)c2cc(NC(C)=O)ccc2NC(=O)[C@@H]1c1ccccc1` (stereo partly specified) yielded an IFI of 2.44%. With `COc1ccc(-n2nc(C(C)(C)C)cc2NC(=O)CN(C(=O)c2ccc(C)c([N+](=O)[O-])c2)C(C)C)cc1` the IFI was 0.82%. Work on `COCCn1nnnc1C(c1cc2cc3c(cc2[nH]c1=O)OCCO3)N1CCC(O)CC1` (stereo unspecified) yielded an IFI of 0%. With `Cc1cccc(NC(=O)CCCn2c(=O)c3cccn3c3ccccc32)c1C` the IFI was 3.45%. With `Cc1nnc(Nc2ccc(F)cc2)c2ccccc12` the IFI was 0%. `CSc1ccc(/C=C/C(=O)NC(=O)c2ccccc2O)cc1` showed an IFI of 7.69%. Compound `CCCOC(=O)C1=C(C)NC2=C(C(=O)CC(c3ccc(OC)c(OC)c3)C2)C1c1ccccc1F` (stereo unspecified) has an IFI of 2.35%. Compound `OCCNc1nc(Nc2ccccc2)nc2ccccc12` has an IFI of 1.44%. `Cc1ccn2c(NC(C)(C)CC(C)(C)C)c(-c3ccccc3OC(=O)c3ccc(Br)cc3)nc2c1` showed an IFI of 5.26%. `COc1ccccc1C1CC(=O)N2CN(Cc3ccccc3)CSC2=C1C#N` (stereo unspecified) showed an IFI of 0%. Work on `CCCCn1nccc1Nc1cc(C)c(C#N)c2nc3ccccc3n12` yielded an IFI of 3.23%. With `CC(=NOC(=O)c1ccco1)c1cnccn1` the IFI was 2.63%. In the case of `O=C(c1cccc(F)c1)N1CCN(Cc2ccncc2)CC1`, the IFI is reported as 0%. Work on `COc1ccc(NC(C)=C2C(=O)c3ccccc3C2=O)c(OC)c1` yielded an IFI of 15.4%. `CN1CCC(N[C@@H]2C[C@@H](C(=O)N3CCN(c4cccc(C(F)(F)F)c4)CC3)N(Cc3ccccc3Cl)C2)CC1` gave an IFI of 1%. Compound `CC[n+]1c(/C=C2\Sc3ccccc3N2CCO)ccc2cc(C)ccc21` has an IFI of 6.35%. For `Cc1ccc(N=C2NC(=O)/C(=C\c3cc(C)n(-c4cccc([N+](=O)[O-])c4)c3C)S2)cc1`, the IFI was 2.35%. `c1ccc2c(NCCc3c[nH]cn3)c3ccccc3nc2c1` showed an IFI of 9.09%. `CCOC(=O)c1cc(S(=O)(=O)NCc2ccc(F)cc2)n[nH]1` gave an IFI of 0%. Work on `COc1cccc(-c2ccc(O)c(CNC34CC5CC(CC(C5)C3)C4)c2)n1` yielded an IFI of 3.45%. For `c1ccc(-c2nc3cc4ccccc4cc3nc2-c2ccsc2)cc1`, the IFI was 2.94%. With `O=c1c2ccccc2nc2n1CCN2Cc1ccc(Cl)cc1` the IFI was 7.58%. Work on `CC(C(=O)NCCCN)N(Cc1ccccc1)S(C)(=O)=O` (stereo unspecified) yielded an IFI of 3.92%. With `Cc1ccc(C(=O)NCCCCNc2ccnc3cc(Cl)ccc23)cc1[N+](=O)[O-]` the IFI was 2.1%. In the case of `C=CCNc1ncnc2c1c(-c1ccccc1)cn2-c1ccccc1`, the IFI is reported as 0%. Compound `CCN(CC)C(=O)c1cn(C2CCN(C(=O)CCc3cccc(OC)c3)CC2)nn1` has an IFI of 0.877%. For `CN1/C(=C/C=C/c2oc3ccccc3[n+]2C)Oc2ccccc21`, the IFI was 21.1%. With `C=CCc1cccc(C=NNc2nc3ccccc3[nH]2)c1O` the IFI was 0%. `CN1C=CC(=Cc2sc3ccccc3[n+]2C)C=C1` gave an IFI of 0%. In the case of `COc1ccc(C2C3=C(O)CC(C)(C)CC3=Nc3[nH]nc(C)c32)cc1` (stereo unspecified), the IFI is reported as 5.2%. For `CON(C)C=C(C(=O)Nc1ccc(C(F)(F)F)cc1)C(=O)Nc1ccc(C(F)(F)F)cc1`, the IFI was 3.9%.
